Over roughly 33,000 sequences, “E-score (-0.5 to 0.5)” has its median near -0.016; the highest 2% begin near 0.32. The list shows a part of the results.

The test deals with T1, Stp1 (UniProt B3LFK1).
T1 sequence: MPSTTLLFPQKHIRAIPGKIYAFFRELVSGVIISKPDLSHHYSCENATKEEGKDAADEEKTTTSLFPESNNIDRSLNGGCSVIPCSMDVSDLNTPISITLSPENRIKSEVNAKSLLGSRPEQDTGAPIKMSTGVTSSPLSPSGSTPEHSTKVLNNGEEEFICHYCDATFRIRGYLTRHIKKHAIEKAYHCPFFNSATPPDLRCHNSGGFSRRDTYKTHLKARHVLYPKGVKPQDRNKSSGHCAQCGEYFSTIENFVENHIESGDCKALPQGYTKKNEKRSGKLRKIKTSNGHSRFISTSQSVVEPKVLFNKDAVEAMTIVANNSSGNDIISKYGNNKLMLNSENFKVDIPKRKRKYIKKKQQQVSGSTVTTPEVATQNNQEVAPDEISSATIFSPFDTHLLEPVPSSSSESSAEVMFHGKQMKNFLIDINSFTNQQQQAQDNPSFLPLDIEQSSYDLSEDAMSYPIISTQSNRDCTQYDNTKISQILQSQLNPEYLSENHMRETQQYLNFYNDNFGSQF
The experiment in a line: PBM E-score (8-mer binding enrichment) (E-score (-0.5 to 0.5)); higher = stronger / more preferred TF binding; most listed sequences are background and not binding sites. To be noted: protein concentration: 200 nM; construct: GST-full length. Put shortly:
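PURExpress in vitro transcription/translation supplied GST-tagged yeast transcription factors, either full-length or DNA-binding domain. Applied at about 100-200 nM to universal all-10-mer Agilent arrays double-stranded by primer extension, the bound protein was detected with fluorescent anti-GST. E-scores, modified Wilcoxon-Mann-Whitney statistics, were given by the Universal PBM Analysis Suite to ungapped eight-base words pooled with their reverse complements after masliner normalisation.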
For CTTCGCTA, the “PBM E-score” value was -0.0729.

Turning to CGATTACC, the “PBM E-score” value was -0.0519. As for AGGCTAAG, the figure is -0.0187; as for ATTTTCCA, 0.149. For the sequence CGACAACA, the “PBM E-score” value worked out at 0.127. As for GGTCGCAC, the figure is -0.0736; as for ACTTCCAT, -0.141. As for GGGTCCTA, the figure is -0.267; as for CATTGACC, -0.00477; as for CCACTAGG, -0.182. As for AATACCGC, the “PBM E-score” value was found to be 0.0472. The same measure for CTTCATAA: 0.249; for ACGCCTTA: 0.294; for CCACGGAA: 0.198. Consider GAAGTCGC, for which the “PBM E-score” value worked out at 0.0115. As for GTATCCGA, the figure is 0.0538; as for TGCCCGAA, -0.0659.

Regarding GAGAAGCC, the “PBM E-score” value was -0.0953. On to GAGCTACC, for which the “PBM E-score” value is -0.141.

With CCAATAAG, the “PBM E-score” value was 0.124. The same measure for GCTGTGCC: 0.182. As for AACTTATT, the figure is 0.111; as for AACGGTTA, -0.0803. Consider ACACTAGC, for which the “PBM E-score” value was -0.0227. As for GCCAGCGA, the figure is -0.147; as for AATAAGTC, -0.106; as for AGACCACT, -0.184. As for CCATCAAC, the figure is -0.0151; as for ATGGGGCC, -0.229. The same measure for AACAGAGA: -0.0939; for CTATGTTC: -0.0988. Regarding CAATGAAG, the “PBM E-score” value was 0.0392. Regarding AATAGTAT, the “PBM E-score” value was determined as 0.168.

As to CCGGCTCG, the “PBM E-score” value was -0.0179. As for CGACGAGA, the “PBM E-score” value is -0.152. CATGAAAA: the “PBM E-score” value amounted to 0.092. As for GGGAACCC, the figure is -0.208.

CACTTCGC: the “PBM E-score” value amounted to 0.0681. The same measure for GCCTGTAC: 0.114. Turning to AAATACAA, the “PBM E-score” value is 0.257. For CGGGGGTC, the “PBM E-score” value is -0.439. For the sequence AAGTATCC, the “PBM E-score” value is -0.0783. As for AACTGTAG, the figure is 0.0446; as for CGGACACG, 0.167; as for CACAACCA, 0.187. Turning to AGATTTGG, the “PBM E-score” value is -0.159. As for CCGACTCG, the “PBM E-score” value is -0.12.

Turning to TACATCAA, the “PBM E-score” value was -0.00825. As for AAGCGGCG, the figure is 0.458. The same measure for AATTCTGC: 0.135; for GAGTGGGC: 0.004. CTATTGCC: the “PBM E-score” value amounted to 0.0651. Regarding GCAGAGCC, the “PBM E-score” value is 0.0995. Regarding AACACTGA, the “PBM E-score” value was determined as 0.121. In the case of CCGAAACC, the “PBM E-score” value is -0.227.

For the sequence ACTCCATG, the “PBM E-score” value is -0.0264. Take CACGCTAG: the “PBM E-score” value is -0.309. On to GTAATCCA, for which the “PBM E-score” value was found to be 0.0213.

As to AACGGAAG, the “PBM E-score” value worked out at 0.0111. Consider CCGTTCAA, for which the “PBM E-score” value stood at 0.255.

Regarding AGAATCAA, the “PBM E-score” value was 0.117. As for CGGCGTGC, the figure is 0.316. The same measure for AACTCATC: -0.0197.

Take GGGCTAAC: the “PBM E-score” value is -0.22.

GTTGCCCA: the “PBM E-score” value was determined as 0.0403.

For AGCTTGTG, the “PBM E-score” value is -0.167. Regarding CTTGGCCC, the “PBM E-score” value is -0.298. The same measure for GGATCCCC: -0.178. As for CATCTGCA, the figure is 0.126; as for GTGCTACA, -0.0512. For CGCGAATC, the “PBM E-score” value was 0.215. On to ACCAAGAA, for which the “PBM E-score” value amounted to 0.152. As for ATACTCCC, the figure is -0.0851.

On to AAGTAGTA, for which the “PBM E-score” value is -0.0615.

With ACGTGGAA, the “PBM E-score” value worked out at 0.0021. For AGGGAGAC, the “PBM E-score” value was -0.133. The same measure for CCTCTGGC: -0.192; for TTCGAAAA: 0.287; for ATTTAGCA: 0.0362.

For the sequence TAGCAGAA, the “PBM E-score” value turned out to be 0.123. With AGGATGAG, the “PBM E-score” value is 0.0154. Consider CCTTTGGA, for which the “PBM E-score” value is -0.0836. Turning to ATTACTTC, the “PBM E-score” value is -0.0579. The same measure for ATGTCCCC: -0.348. Take CACTCACC: the “PBM E-score” value was -0.107. Take AAGGCTCT: the “PBM E-score” value amounted to 0.21.

The values above are taken from the supplement of paper PMC3334620.
